Measured values published in article PMC4336329 (PLoS ONE, 2015).
Hit rate of the full screen: of about 310,000 compounds, about 14,000 (4.5%) showed an effect of 50% or more. The effect is printed as a negative number. Some of the results follow.

target: human ether-à-go-go-related gene (hERG) potassium channel (human, UniProt Q12809); assay: primary screen, population patch clamp on CHO cells stably expressing hERG
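Note: peak tail current of the secondary pulse compared with the same well before compound.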

Sequence of human ether-à-go-go-related gene (hERG) potassium channel (Q12809 whole entry, looked up): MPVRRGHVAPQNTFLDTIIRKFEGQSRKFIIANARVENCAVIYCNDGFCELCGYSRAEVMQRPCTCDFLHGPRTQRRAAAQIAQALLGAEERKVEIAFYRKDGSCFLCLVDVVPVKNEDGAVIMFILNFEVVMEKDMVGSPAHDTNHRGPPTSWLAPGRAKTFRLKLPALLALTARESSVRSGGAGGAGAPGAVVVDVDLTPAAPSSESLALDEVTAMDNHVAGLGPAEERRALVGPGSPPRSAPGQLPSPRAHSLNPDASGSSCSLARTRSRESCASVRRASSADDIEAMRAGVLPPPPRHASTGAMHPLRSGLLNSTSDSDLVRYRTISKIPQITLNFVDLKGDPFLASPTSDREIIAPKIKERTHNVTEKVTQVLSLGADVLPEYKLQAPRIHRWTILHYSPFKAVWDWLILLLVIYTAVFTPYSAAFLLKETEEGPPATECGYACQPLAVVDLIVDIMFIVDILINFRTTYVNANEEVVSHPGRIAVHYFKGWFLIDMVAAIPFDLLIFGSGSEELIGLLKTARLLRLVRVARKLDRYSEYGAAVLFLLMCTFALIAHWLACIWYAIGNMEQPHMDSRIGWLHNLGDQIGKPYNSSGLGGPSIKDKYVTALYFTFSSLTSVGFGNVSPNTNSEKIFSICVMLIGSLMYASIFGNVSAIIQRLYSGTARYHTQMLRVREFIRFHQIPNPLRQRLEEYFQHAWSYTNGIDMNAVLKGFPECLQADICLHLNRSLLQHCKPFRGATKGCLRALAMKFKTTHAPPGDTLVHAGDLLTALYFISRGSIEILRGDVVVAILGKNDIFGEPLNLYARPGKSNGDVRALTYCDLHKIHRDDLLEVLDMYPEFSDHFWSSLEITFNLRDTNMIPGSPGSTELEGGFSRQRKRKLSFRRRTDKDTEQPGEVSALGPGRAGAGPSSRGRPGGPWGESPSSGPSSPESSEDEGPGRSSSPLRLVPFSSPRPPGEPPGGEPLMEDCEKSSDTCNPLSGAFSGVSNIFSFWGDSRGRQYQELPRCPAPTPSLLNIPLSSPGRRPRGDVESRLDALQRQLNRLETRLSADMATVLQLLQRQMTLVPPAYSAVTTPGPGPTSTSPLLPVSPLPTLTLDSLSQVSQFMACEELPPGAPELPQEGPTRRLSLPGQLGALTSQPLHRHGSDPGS

Compound	hERG current change (%, negative = inhibition) at 10uM
COc1cccc(OC)c1C(=O)OCC(=O)N(C)c1ccccc1	7.96%
CS(=O)(=O)N(CC(=O)NCc1cccnc1)Cc1ccc(Cl)cc1	-30.1%
Cc1cccc(CSc2ncnc3c2cnn3Cc2ccccc2)c1	4.43%
Cc1cc(C)c(NC(=O)COC(=O)C2CCC(=O)N2)c(C)c1 (stereo not drawn)	-7.5%
Cc1ccccc1C(=O)N(CC(=O)Nc1sc(C)c(C)c1C(N)=O)C1CCCC1	-10.6%
COC(=O)c1cc(NC(=S)NC(=O)c2ccccc2)ccc1N1CCOCC1	-27.1%
CC(C)CNC(=O)C1CCN(c2ccc(S(=O)(=O)N3CCOCC3)cc2)CC1	-5.95%
COc1ccc(CC(=O)Nc2ccc(F)c(F)c2F)cc1S(=O)(=O)N1CCOCC1	-16.8%
CCN(CC)CCCN1CC(O)=C(c2nc3ccccc3s2)C1=N	-34.2%
COC(=O)c1c(NC(=O)Cc2cccs2)sc(C)c1C	-3.56%
O=C1c2ccccc2CN1CCNS(=O)(=O)c1ccc2ccccc2c1	-3.08%
Cc1ccc(/C=C2/C(=N)N3N=C(CC(=O)N4CCCC4)SC3=NC2=O)cc1	12.7%
COc1ccc2oc(C(=O)OCC(=O)NCCc3ccc(S(N)(=O)=O)cc3)c(C)c2c1	13.5%
Cc1ccc(Cl)cc1N1CCN(S(=O)(=O)c2cccc(S(=O)(=O)N3CCCC3)c2)CC1	2.64%
CCC(=O)Nc1ccc(NC(=S)NC(=O)Cc2ccccc2)cc1	11.8%
COc1ccc(OCCCC(=O)ON=C(N)c2ccccc2C)cc1	-5.48%
COc1ccc(C2CC(C(F)(F)F)n3ncc(C(=O)NCc4cccnc4)c3N2)cc1OC (stereo not drawn)	4.49%
CSc1ccc(CCNC(=O)c2nn(C)c3c2CS(=O)(=O)c2ccccc2-3)cc1	-48.2%
Cc1ccccc1C(=O)c1cccn1CC(=O)NCC(C)c1ccccc1 (stereo not drawn)	-20.3%
O=C(Nc1ccccc1Cl)N1CCn2c(nc3ccccc32)C1	-8.42%
CC(C)N(C)C(=O)C(=O)c1cccn1-c1cccc(Cl)c1C#N	10.4%
C=CCN=C1SC(CC)C(=O)N1S(=O)(=O)c1ccc(C)cc1 (stereo not drawn)	6.92%
COc1ccc(/C=N/NC(=O)c2cccnc2)cc1O	11.1%
CCN1C(=O)[C@@H]2[C@@H](c3ccc(-c4ccc(F)cc4)cc3)N3CCCC[C@@]3(C(=O)OC)[C@@H]2C1=O.O=C(O)C(F)(F)F	-7.48%
CCOC(=O)Cn1nc2sc3ccccc3n2c(=O)c1=O	10.6%
O=C(Cc1ccccc1)NCC(=O)N1CCC1	8.63%

Compound	hERG current change (%, negative = inhibition) at 10uM
O=C1Nc2cc(Cl)c(Cl)cc2N(O)N1c1ccccc1	16%
Cc1ccc(CSc2nnc(SCC(=O)N/N=C/C=C/c3ccccc3[N+](=O)[O-])s2)cc1	15.5%
Cc1ccccc1Nc1c([N+](=O)[O-])cncc1[N+](=O)[O-]	-16.3%
COCCN(C(=O)CCCc1nc2ccccc2s1)c1c(N)n(CC(C)C)c(=O)[nH]c1=O	15.1%
CCOC(=O)c1ccc(NC(=O)NCc2ccccc2OC)cc1	-22.2%
CCC(=O)Nc1ccc(C(=O)N/N=C/c2ccccc2[N+](=O)[O-])cc1	14.1%
O=C(c1ccc(Cl)cc1)N1CCC(=O)N(C(CO)Cc2ccccc2)CC1 (stereo not drawn)	-12.6%
CS(=O)(=O)N1CCC(C(=O)Nc2cccc(C(F)(F)F)c2)CC1	-14.2%
NS(=O)(=O)c1ccc(-c2ccc(/C=C3\SC(=O)NC3=O)o2)cc1	19.8%
CCOc1ccc(CNC(=O)c2ccc(Sc3ccc(C)cc3)c(NC(C)=O)c2)cc1OC	-21.5%
Cc1ccc(S(=O)(=O)NC(CC(=O)N2CCc3ccccc32)c2ccco2)cc1 (stereo not drawn)	-8.95%
CCCCn1c(O)c(C(C)=NCCc2c[nH]c3ccccc23)c(=O)[nH]c1=O	-16%
CC1CCC(NC(=O)CN(C)S(=O)(=O)c2ccc3c(c2)c(=O)n(C)c(=O)n3C)CC1 (stereo not drawn)	-11.1%
O=C(CNS(=O)(=O)c1ccc(Br)cc1)NCc1ccncc1	1.34%
Cc1cccc(C)c1NC(=O)CN1C(=O)NC(C)(CCc2ccccc2)C1=O (stereo not drawn)	18.1%
Cc1cccc(S(=O)Cc2ccc(C(=O)NC3CCN(Cc4ccccc4)CC3)o2)c1 (stereo not drawn)	-12.9%
CC(=O)CCc1c(C)c2cccc(C)c2[nH]c1=O	6.89%
CC(Sc1nc(-c2ccc(F)cc2)cs1)C(=O)Nc1ccc(Cl)cn1 (stereo not drawn)	8.7%
CCN(CCn1cccn1)Cc1nc(-c2ccc(OC)cc2)no1	-7.61%
COc1cc(OC)c(NC(=O)CS(=O)(=O)Cc2nc(-c3ccc(C)cc3)oc2C)cc1Cl	11.5%
COc1ccc2nc(NC(=O)CCNC(=O)c3ccco3)sc2c1	-20.1%
O=C(O)c1cccc(NC(=O)c2cccc(S(=O)(=O)N3CCCCC3)c2)c1	-4.7%
COc1ccc(COC(=O)c2ccc(C)c(S(=O)(=O)N3CCOCC3)c2)cc1F	-3.65%
CCCN(CCC)CCNC(=O)CS(=O)Cc1nc(-c2ccc(C)cc2)oc1C (stereo not drawn)	-31.2%
C[C@H]1O[C@H](O[C@H]2[C@H](O[C@@H]3CC[C@@]4(C)C(CC[C@]5(C)C4CC=C4[C@@H]6CC(C)(C)CC[C@]6(C(=O)O[C@@H]6O[C@H](CO)[C@@H](O)[C@H](O)[C@H]6O)CC[C@]45C)C3(C)C)O[C@H](C(=O)O)[C@@H](O)[C@@H]2O)[C@@H](O)[C@@H](O)[C@@H]1O (stereo partly drawn)	14%
